# Measurements taken from PubChem BioAssay AID485297 (National Center for Advancing Translational Sciences (NCATS), 2010).
# Among all 320,000 compounds or so, about 9,100 (2.8%) were called active. Inconclusive means that the source gave no clear call. Such entries were picked first, then a sample of the others. The call rests on the fitted dose curve; in most records, active means well fitted activation curve with a large enough effect; inconclusive means small, poorly fitted or top-dose-only effect; inactive means no such curve, though single readings can be large or run the other way. No potency is given beside an inconclusive call; the fits are too rough.
# Test: qHTS Assay for Rab9 Promoter Activators; further: nearly all actives have a fitted effect of over 60% in size; on activation, negative = inhibition: % of control where 0% means no effect
# Conditions: Huh7 Rab9 promoter-luciferase reporter, luminescence, 24 h; series mostly up to 9.22 µM; activation, negative = inhibition: at the top concentration
# Description: NIH Chemical Genomics Center [NCGC] NIH Molecular Libraries Probe Production centers Network [MLPCN] MLPCN Grant: MH089537-01 Assay Submitter (PI): Yiannis A. Ioannou NCGC Assay Overview: Niemann Pick Type C (NPC) is a rare neurodegenerative lipidosis that is characterized by lipid storage in the endosomal/lysosomal system. Treatment modalities for this devastating disease are currently non-existent due to the severe obstacles associated with accessing the central nervous system with proteins or genes (Ioannou, 2000). We have developed a new paradigm, termed "Orphan Receptor Bypass Therapy" (ORByT), to address these disorders. This paradigm posits the existence of endogenous "suppressor" proteins whose expression can dramatically improve LSD pathogenesis. The goal is the identification/discovery of small chemical compounds that can modulate the expression of these proteins and provide a new treatment modality for these devastating disorders. One such protein whose overexpression reverses aspects of the NPC phenotype is Rab9. We have developed and optimized a cell based luciferase reporter assay in 1536 well format for the identification of up-regulators of the Rab9 promoter.
# The Rab9 promoter is cloned in front of the luciferase reporter gene, therefore […] promoter activation results in luciferase expression. Frozen stock of the Rab9 promoter transfected Huh7 cells were obtained from the laboratory of Dr. Yiannis Ioannou (The Mount Sinai School of Medicine, New York, NY). Cells were propagated and maintained at NCGC in medium containing RPMI-1640 supplemented with 10% FBS, 2mM L-glutamine, and 50ug/ml penicillin/streptomycin. Cells were harvested in and plated for assays in OP-MEM I reduced-serum medium supplemented with 10% FBS. The Amplite luciferase reporter gene assay kit was purchased from ABD Bioquest and prepared/stored according to manufacturers recommendations. qHTS Assay Setup: 1.Dispensed 5ul of Huh7 cells stably expressing Rab9-luciferase at a density of 1500 cells per well 1536-well plates. 2.Incubate cells at 37C, 5% CO2, and 95% humidity for 2 hours. 3.Transferred 23nl per well of compound in DMSO solution. 4.Incubated at 37C, 5% CO2, and 95% humidity for 24 hours. 5.Dispensed 3ul per well of Amplite reagent(ABD Bioquest) per well. 6.Incubate at ambient for 10 minutes. 7.Read using the luminescence protocol on the ViewLux plate reader (Perkin Elmer).
# Potency means the concentration at half of the fitted maximal effect; tags describe the fitted curve by direction and shape.
SMILES,Potency,"activation, negative = inhibition"
CCCC(=O)Nc1ccc(NC(=O)c2ccco2)cn1,"inconclusive [activator, partial curve]",–
O=C(c1cccc(NC2=NC3CS(=O)(=O)CC3S2)c1)N1CCN(c2cccc(Cl)c2)CC1 (stereo not drawn),–,inactive: 2.85%
Clc1ccc(-c2nnc(N3CCOCC3)o2)cc1,"inconclusive [activator, partial curve]",–
O=Cc1c(OCc2ccccc2)ccc2ccccc12,"inconclusive [activator, single point]",–
O=C(Nc1ccccc1)Nc1nnc(-c2ccccc2)s1,"inconclusive [activator, partial curve]",–
Cc1cc(C(=O)Nc2nc3c(s2)CCCC3)cs1,active: 1 µM,–
Cc1nc2c(-c3ccccc3)cnn2c(N2CCOCC2)c1C,active: 1.26 µM,–
CCOC(=O)c1ccc(OCCOc2ccccc2C)cc1,–,inactive: 0.973%
COc1ccc(N2C(=O)CC(Sc3nc4c(cc3C#N)CCC4)C2=O)cc1 (stereo not drawn),"inconclusive [activator, single point]",–
COC(=O)CNc1c(-c2ccccc2)nc2ccc(Br)cn12,"inconclusive [activator, partial curve]",–
c1ccc(SCc2nc(-c3ccccn3)no2)cc1,"inconclusive [activator, partial curve]",–
CN(Cc1nccn1C)C(=O)c1ccc2nc(Cc3ccccc3F)oc2c1,"inconclusive [activator, partial curve]",–
Cc1cc(Cl)ccc1Nc1ncccc1C(N)=O,"inconclusive [activator, partial curve]",–
COc1c(Cl)cccc1-c1cn2ccc(C)cc2n1,active: 0.562 µM,–
COc1ccc(-c2nc3cc(C)ccn3c2NCc2ccc3c(c2)OCO3)cc1,"inconclusive [activator, single point]",–
COc1ccccc1N1CCN(C(=O)c2cccc(S(=O)(=O)N3CCCCCC3)c2)CC1,–,inactive: -4.55%
O=C(Nc1nccs1)c1ccc(-c2ccc([N+](=O)[O-])cc2)o1,active: 1.41 µM,–
O=C(Nc1ccc(OCc2ccccc2Cl)cc1)c1cccnc1,–,inactive: 1.15%
O=C(CSc1nnc(-c2ccccn2)o1)Nc1ccccc1C(F)(F)F,"inconclusive [activator, partial curve]",–
O=C(CCC(=O)N1CCN(c2ccccn2)CC1)Nc1nnc(C(F)(F)F)s1,–,inactive: -1.21%
CC1CCC(NC(=O)Cn2c(=O)[nH]c3ccsc3c2=O)CC1 (stereo not drawn),"inconclusive [activator, partial curve]",–
O=C(NCc1ccccc1)c1cc(-c2cccs2)on1,"inconclusive [activator, partial curve]",–
COc1ccc(OCc2ccc(-c3nc4ccccc4c(=O)n3N)o2)cc1,active: 1.26 µM,–
O=C(Nc1ccc(C(F)(F)F)cc1)c1ccccc1,active: 2.51 µM,–
Cn1cccc1/C=N/NC(=O)c1ccccn1,active: 3.55 µM,–
COC(=O)c1ccc(CSc2nncn2C)cc1,"inconclusive [activator, single point]",–

SMILES,Potency,"activation, negative = inhibition"
Cc1nc2cc(-c3ccc(Cl)cc3)nn2c(C)c1CCC(=O)NC(C)c1ccc2c(c1)OCCO2 (stereo not drawn),–,inactive: -2.9%
Cc1cc(C)n(-c2cc(N3CCN(C(=O)c4cccc(F)c4)CC3)ccc2[N+](=O)[O-])n1,–,inactive: -5.17%
O=C(Nc1ccc(-c2noc(COc3ccccc3Cl)n2)cc1)c1ccco1,"inconclusive [activator, partial curve]",–
Cc1ccc(NC(=O)c2ccc3nccnc3c2)c(C)c1,"inconclusive [activator, single point]",–
CC(/C=N/Nc1ncc(C)c(=O)[nH]1)=C\c1ccccc1,"inconclusive [activator, single point]",–
Nc1nc(-c2c[nH]c3ccccc23)cs1,"inconclusive [activator, single point]",–
COc1ccc(-n2nc(C(=O)NCC(=O)N3CCN(c4ccccc4)CC3)c3ccccc3c2=O)c(OC)c1,"inconclusive [activator, partial curve]",–
N#Cc1c(/N=C/c2ccc(Br)s2)sc2c1CCC2,"inconclusive [activator, single point]",–
Cc1ccc(C)c(NC(=S)c2nc3ccccc3s2)c1,"inconclusive [activator, partial curve, poor fit]",–
N#CCCN/N=C(/Cc1nc2ccccc2[nH]1)c1ccc(Cl)cc1,"inconclusive [activator, single point]",–
COCC(=O)n1nc(-c2ccccc2)nc1NCc1cccs1,"inconclusive [activator, partial curve]",–
Cc1ccc(-c2c(C#N)c(N)n3c(nc4ccccc43)c2C#N)cc1,–,inactive: -10.1%
c1ccc2[nH]c(SCCN3CCOCC3)nc2c1,"inconclusive [activator, single point]",–
CSc1ncccc1C(=O)NC1CCCCCC1,"inconclusive [activator, single point]",–
Cc1cc2ncc(C(=O)Nc3ccsc3C(=O)O)c(C)n2n1,"inconclusive [activator, partial curve]",–
Cc1ccc(S(=O)(=O)c2c(N)n(NC(=O)C3CC3)c3nc4ccccc4nc23)cc1,"inconclusive [activator, single point]",–
O=C(c1c(F)cccc1F)N(Cc1ccccn1)C1CC1,"inconclusive [activator, single point]",–
Cn1c(SCc2ccccc2)nnc1-c1ccco1,"inconclusive [activator, partial curve]",–
O=C(Nc1ccc2nc[nH]c2c1)c1ccco1,"inconclusive [activator, partial curve]",–
O=C(NC12CC3CC(CC(C3)C1)C2)c1ccc(-c2ccc(Br)cc2)o1,"inconclusive [activator, single point]",–
O=C(NC1CC1)c1cccc(Nc2ccc(-c3ccc4c(c3)OCCO4)nn2)c1,active: 2 µM,–
S=C(Nc1cccc2ccccc12)NC1CCCCC1,"inconclusive [activator, partial curve]",–
C/C(CC(=O)Nc1c(C)cc(C)cc1C)=N\NC(=O)Cc1ccccc1,–,inactive: 2.38%
COc1ccc(-c2nn(-c3ccccc3)cc2/C=N/Nc2cccc(C(=O)O)c2)cc1,"inconclusive [activator, single point]",–
CSc1nnc(NC(=O)c2ccc(S(=O)(=O)N(C)C)cc2)s1,active: 0.562 µM,–
CCOc1ccc(N=C(C)C2=C(O)c3ccccc3C2=O)cc1,active: 1.26 µM,–

SMILES,Potency,"activation, negative = inhibition"
COc1ccc(CNC(=O)c2cc(COc3c(F)cccc3F)on2)cc1OC,–,inactive: -1.1%
N=C1N(/N=C/c2ccccc2)C(=Nc2ccccc2)C(=S)N1c1ccccc1,"inconclusive [activator, single point]",–
COc1ccc(-n2cc(-c3ccc(Cl)cc3)[nH]c2=S)cc1,active: 1.26 µM,–
COc1ccc(S(=O)(=O)Nc2ccc(Oc3ccsc3C(=O)O)cc2)cc1,–,inactive: -2.21%
CC1(C)Cc2nc3sc4c(SCC(=O)O)ncnc4c3cc2CO1,"inconclusive [activator, partial curve]",–
Cc1ccc2nc(-c3ccc(O)cc3)oc2c1,"inconclusive [activator, partial curve]",–
O=C(CCSc1ccccc1)N1CCN(c2ccccc2)CC1,active: 2.82 µM,–
CCn1c(SCc2ccccc2Cl)nc2ccccc21,–,inactive: 19.8%
Cc1ccc2nc(NC(=O)c3ccc(Br)o3)sc2c1,active: 1.12 µM,–
c1ccc(CCNc2nc(-c3cccnc3)cs2)cc1,"inconclusive [activator, partial curve]",–
COc1ccc(CN(C)C(=O)COC(=O)c2c(C)nn(-c3ccc(F)cc3)c2Cl)cc1,–,inactive: -6.85%
O=C(NCc1ccccc1)c1onc(CS(=O)(=O)c2ccccn2)c1C(=O)NCc1ccccc1,–,inactive: -0.242%
CCOc1ccc(C(=O)C(c2ccccc2)N2CCOCC2)cc1 (stereo not drawn),–,inactive: 8.74%
CCOc1cccc(CN2CCC(Oc3ccc(C(=O)NCc4ccccn4)cc3)CC2)c1,–,inactive: 0.689%
CC(=O)c1cnc2nc(SCc3ccccc3)nn2c1C,active: 3.55 µM,–
CC(C)(OC(=O)c1ccc(C#N)cc1)c1cc2ccccc2c(=O)o1,–,inactive: -0.192%
O=C(N/N=C/c1ccco1)Nc1ccccc1,active: 3.98 µM,–
COc1ccc(NC(=O)CSc2nccn2Cc2ccco2)cc1,active: 3.55 µM,–
COc1cccc(C(=O)NC2=NCCS2)c1OC,"inconclusive [activator, partial curve]",–
Cc1nc(C)c(N)c(=O)[nH]1,–,inactive: 6.17%
O=C1S/C(=C\c2ccc(N3CCOCC3)o2)C(=O)N1c1ccccc1,"inconclusive [activator, single point]",–
Cc1cc(C)n2nc(CNS(=O)(=O)c3cccc([N+](=O)[O-])c3)nc2n1,–,inactive: 2.7%
Cc1ccc(N(CC(=O)Nc2ccc(-c3nc4ccc(C)cc4s3)cc2)S(C)(=O)=O)cc1,"inconclusive [activator, single point]",–
Cc1cc(CN(C)C(=O)c2ccc3nc(Cc4ccccc4F)oc3c2)on1,active: 3.16 µM,–
CS(=O)(=O)N1CCc2cc(C(=O)Nc3ccc(Cl)cc3)ccc21,"inconclusive [activator, partial curve]",–
COc1ccc(S(=O)(=O)NC(C(=O)NCCc2ccccn2)C(C)C)cc1 (stereo not drawn),"inconclusive [activator, single point]",–
